# Experimental data from PubChem BioAssay AID504706 (National Center for Advancing Translational Sciences (NCATS), 2011).
# In all, about 320,000 compounds went through this assay and about 200 (0.062%) were called active. The inconclusive results got no clear call from the source; some entries with a clear call stand among them for comparison. Calls come from the whole dose curve; as a rule, active = well fitted activation curve with a large enough effect; inconclusive = small, poorly fitted or top-dose-only effect; inactive = no such curve, though single readings can be large or run the other way. Potencies of inconclusive entries are left out as doubtful fits.
# Assay: qHTS assay for re-activators of p53 using a Luc reporter; note: nearly all actives have a fitted effect of over 45% in size; for activity change, positive = activation: % of control where 0% means no effect
# Conditions: H1299 p53-A138V BP100-luciferase reporter, luminescence, 24 h; series mostly up to 92.2 µM; activity change, positive = activation: at the top concentration
# In short: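 H1299 (p53-null), stable ts p53-A138V + BP100-Luc; 1000 cells/well, Opti-MEM/10% FBS; cpd 4 pt, 1:5; 24 h, 37 deg C, 5% CO2; detection reagent 10 min RT; luminescence.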
# Potency is the fitted concentration of half-maximal effect; tags give direction and shape of the fitted curve.
Structure (SMILES),"activity change, positive = activation",Potency
CCc1ccc(Nc2nc3ccccc3c(=O)s2)cc1,inactive: -7.02%,–
Clc1cc2cccnc2c2ncccc12,–,"inconclusive [activator, single point]"
COc1ccc(C(=O)Cc2ccc3c(c2)OCO3)c(O)c1,–,"inconclusive [activator, partial curve, poor fit]"
O=C(N/N=C/c1ccccc1O)/C(=C/c1ccccc1)CCO,–,"inconclusive [activator, partial curve, poor fit]"
COc1cccc(NC(=O)Nc2nnc(N3CCCCC3C)s2)c1 (centres undefined),–,"inconclusive [activator, partial curve, poor fit]"
COC(=O)c1nc(NC(=O)c2ccccc2Cl)n[nH]1,inactive: -0.0679%,–
COc1cccc2c(=O)c3ccccc3oc12,inactive: 7.81%,–
Cc1ccc(S(=O)(=O)NCC2CCC(C(=O)NCCCOC(C)C)CC2)cc1 (centres undefined),inactive: -0.593%,–
CCCCC(=O)N/N=C/c1ccc(-c2ccc([N+](=O)[O-])cc2)o1,inactive: -0.664%,–
Cc1ccc(Nc2nc(CSc3nnc(-c4cccnc4)n3-c3ccccc3C)cs2)cc1,–,"inconclusive [activator, single point]"
COc1cc(NS(=O)(=O)c2ccc(N/C=C\C(=O)c3ccc(F)cc3)cc2)nc(OC)n1,–,"inconclusive [activator, partial curve, poor fit]"
Nc1nnc(SCCCOc2ccc(F)cc2)s1,inactive: 1.12%,–
C=CCNc1nc(Cl)nc(Nc2ccc(OC)cc2OC)n1,inactive: -3.01%,–
O=C(Nc1ccc(Br)cc1)c1ccc2c(c1)OCO2,–,"inconclusive [activator, partial curve, poor fit]"
Cc1ccc(NC(=O)CCC(=O)N/N=C/c2cccs2)cc1C,inactive: -3.59%,–
COc1ccccc1Nc1nc(N)nc(CN2CCc3ccccc3C2)n1,inactive: 14.2%,–
CCCCN(C)CCn1c(=S)[nH]c2ccc(N3CCOCC3)cc2c1=O,–,"inconclusive [activator, partial curve, poor fit]"
Cc1cc(C(=O)Nc2sc3c(c2C#N)CCC(C)C3)no1 (centres undefined),–,"inconclusive [activator, partial curve, poor fit]"
Nc1nn(-c2ccccc2)nc1C(=O)OCc1ccccc1,–,"inconclusive [activator, partial curve, poor fit]"
CCCCSc1ccc(NC(=O)c2cccnc2)cc1,–,"inconclusive [activator, single point]"
Cc1cc(/C=N/NC(=O)C(O)(c2ccccc2)c2ccccc2)c(C)n1-c1cccc(C(=O)O)c1,inactive: 3.35%,–
O=c1c2ccccc2oc2c1oc1ccccc12,–,"inconclusive [activator, partial curve, poor fit]"
O=C(NC1CCCCCC1)c1ccc2c(=O)n3c(nc2c1)CCCCC3,–,"inconclusive [activator, partial curve, poor fit]"

Structure (SMILES),"activity change, positive = activation",Potency
COCc1nnc(NC(=O)c2sc3ccccc3c2Cl)s1,–,"inconclusive [activator, partial curve, poor fit]"
O=C(Nc1ccc2c(c1)OCO2)Nc1ccc(Br)cn1,–,"inconclusive [activator, partial curve, poor fit]"
O=C(Nc1ccccc1C(F)(F)F)N1CCC(n2c(=O)[nH]c3ccccc32)CC1,–,"inconclusive [activator, single point]"
COc1cccc2sc(N(C)c3ccccc3)nc12,–,"inconclusive [activator, partial curve, poor fit]"
O=C(Nc1cccc(Cl)c1)N(Cc1nc2ccccc2c(=O)[nH]1)C1CCCC1,–,"inconclusive [activator, full curve, poor fit]"
C/C(=N/Nc1nc(-c2ccccc2)cc(-c2ccc(F)cc2)n1)c1cccc(N)c1,–,"inconclusive [activator, full curve, poor fit]"
Cc1cc(C)nc(N/N=C/c2ccccc2OCc2ccc([N+](=O)[O-])cc2)n1,–,"inconclusive [activator, partial curve, poor fit]"
CN(C(=S)NC(=O)/C=C/c1ccc(F)cc1)C1CCCCC1,inactive: -0.036%,–
C/C(=N\Nc1ccc(Cl)c(C(=O)O)c1)c1cccs1,inactive: 8.39%,–
CNC(=O)c1[nH]nc2c1CCc1ccccc1-2,inactive: -0.896%,–
Oc1c(Br)cc(Br)cc1C=Nc1ccc2c(c1)OCO2,inactive: 4.39%,–
c1ccc(-c2ccc(OCCOCCn3cncn3)cc2)cc1,–,"inconclusive [activator, partial curve, poor fit]"
CC(C)(C)C(=O)NC(=S)Nc1ccccn1,inactive: -1.24%,–
CCN(CC)c1ccc(/C=N/Nc2ccccc2)c(O)c1,–,"inconclusive [activator, single point]"
CCOC(=O)C1(Cc2ccccc2Cl)CCN(C(=O)c2cc(C)on2)CC1,–,"inconclusive [activator, partial curve, poor fit]"
CN1CCC(N(C)C(=O)CCc2nc3ccccc3n2-c2ccccc2)CC1,–,"inconclusive [activator, single point]"
COc1ccccc1Nc1ncc(C(C)=O)c(C)n1,–,"inconclusive [activator, partial curve, poor fit]"
CCc1nnc(NC(=O)c2ccc3c(c2)C(=O)N(C(C)(C)C)C3=O)s1,–,"inconclusive [activator, partial curve, poor fit]"
Cc1cc(OCc2nc(-c3cccs3)no2)cc(C)c1Cl,–,"inconclusive [activator, full curve, poor fit]"
COc1cccc(Nc2ncnc3ccccc23)c1,–,"inconclusive [activator, partial curve, poor fit]"
N#Cc1ccsc1NC(=O)COC(=O)CCS(=O)(=O)c1ccccc1,–,"inconclusive [activator, single point]"
COC1=C(Nc2ccc(OC)cc2)C(=O)c2ccccc2C1=O,–,"inconclusive [activator, partial curve, poor fit]"
Cc1cc(C(=O)NCCCN2CCN(C3CCCCC3)CC2)n(-c2ccccc2)n1,–,"inconclusive [activator, partial curve, poor fit]"

Structure (SMILES),"activity change, positive = activation",Potency
O=C(OCc1ccc(Cl)c(Cl)c1)c1ccc[nH]1,–,"inconclusive [activator, partial curve, poor fit]"
CC(C)(C)c1cc(-c2nc(N)nc(N)n2)cc(C(C)(C)C)c1,inactive: -10.3%,–
CCCCOc1ncnc2c1[nH]c1ccc(C)cc12,inactive: 3.82%,–
Cc1ccc(C(=O)Cn2c(=N)n(N)c3ccccc32)cc1,–,"inconclusive [activator, single point]"
O=C(CCSc1ccccc1)Nc1nc2c(s1)CCCC2,–,"inconclusive [activator, partial curve, poor fit]"
CC1=CC(C)(C)N2C(=O)C3(NCCc4c3[nH]c3ccccc43)c3cc(C)cc1c32 (centres undefined),inactive: 2.33%,–
N#CCC(=O)Nc1ccc(C(=O)NCCc2c[nH]c3ccccc23)cc1,–,"inconclusive [activator, single point]"
CC(C)Cc1cc(C(=O)Nc2ccc3c(c2)OCO3)no1,–,"inconclusive [activator, partial curve, poor fit]"
O=C(Oc1c(Br)cc([N+](=O)[O-])cc1Br)c1cccnc1,inactive: 0.114%,–
Cc1c(C(=O)NCCc2ccccc2)oc2ccccc12,–,"inconclusive [activator, full curve, poor fit]"
CS(=O)(=O)c1ccc2nc(NC(=O)C3CCCCC3)sc2c1,–,"inconclusive [activator, full curve, poor fit]"
COCC(=O)Nc1c(C(=O)Nc2ccc3c(c2)OCO3)oc2ccccc12,–,"inconclusive [activator, partial curve, poor fit]"
Cc1sc(NC(=O)c2ccc3ncsc3c2)c(C(N)=O)c1C,–,"inconclusive [activator, full curve, poor fit]"
C=C(C(=O)Oc1c(C(C)(C)C)cccc1C(C)(C)C)c1ccccc1,–,"inconclusive [activator, full curve, poor fit]"
CC(=O)Nc1cccc(Oc2ccc(-c3noc(C)n3)cc2)c1,–,"inconclusive [activator, partial curve, poor fit]"
Cc1cc(Nc2ccccc2)nn1C(=O)c1ccc([N+](=O)[O-])cc1,inactive: 6.24%,–
Cc1cc(NC(=O)COc2ccc(Cl)cc2Cl)n(CCC#N)n1,–,"inconclusive [activator, partial curve, poor fit]"
CC(/C=C/c1ccccc1F)=N\NC(=O)c1ccccc1,–,"inconclusive [activator, partial curve, poor fit]"
Nc1nc2n(n1)C(c1ccco1)CC(c1ccc(Cl)c(Cl)c1)N2 (centres undefined),–,"inconclusive [activator, single point]"
COc1ccccc1C(=O)NNC(=S)NC(=O)c1ccco1,–,"inconclusive [activator, partial curve, poor fit]"
Cc1ccc(O)c(C=Nc2cc(C)ccc2O)c1,–,"inconclusive [activator, partial curve, poor fit]"
COc1ccc(C(=O)Nc2ccc3c(c2)nc2n3CCSC2)cc1,–,"inconclusive [activator, partial curve, poor fit]"
CC/C(=N\NC(=S)Nc1cccc(C)c1)c1ccccc1,–,"inconclusive [activator, partial curve, poor fit]"
